Out of some 2,200 compounds screened, fewer than 10 were called active. The list shows a part of the results. Entries without a call are filed as inconclusive in the source.

This assay addresses GTPase KRas (Homo sapiens) (UniProt P01116). Nature of the assay: Covalent labelling of cysteine mutants by fragments, read by mass spectrometry (AID 2202238). More on the design: protein at 5 µM with 500 µM competing thiol for 1.5 h. Particulars: KRAS G12D cysteine mutants, disulfide tethering, MALDI-TOF labeling; stronger effect = higher value; H27C mutant labeling; fragment at 500 µM.
Sequence of UniProt P01116 (P01116 whole entry, looked up, the tested form may be a part): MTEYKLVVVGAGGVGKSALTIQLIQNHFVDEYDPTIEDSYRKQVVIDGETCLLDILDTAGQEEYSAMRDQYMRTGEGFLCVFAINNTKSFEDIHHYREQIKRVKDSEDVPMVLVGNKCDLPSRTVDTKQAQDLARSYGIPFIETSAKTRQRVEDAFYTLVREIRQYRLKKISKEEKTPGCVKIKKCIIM
As for `CN1CCCC2(CCN(C(=O)CCS)CC2)C1`, the percent labeling came out at 49.1%.

`CN1CCc2nc3ccccc3c(C(=O)NCCS)c2C1`: the percent labeling was found to be 39.7%.

`CCOC(=O)C12CC(CNC(=O)CCS)(C1)OC2c1ccccc1` (configuration not stated) returned a percent labeling of 32.4%.

Regarding `O=C(CCS)N1C[C@@H]2C[C@H](C1)c1cccc(=O)n1C2`, the percent labeling was 35.3%.

In turn, `N#Cc1cc2c([nH]c1=O)CC1CCC2N1C(=O)CCS` (configuration not stated) came in with a percent labeling of 35.6%.

Turning to `O=C(CCS)NCC12CC(CN1C1CC1)C2`, the percent labeling amounted to 47.8%.

Regarding `Cc1c(C(=O)NCCS)c2ccccc2n1Cc1ccccc1`, the percent labeling stood at 33.8%.

Turning to `O=C(NCCS)c1cn(Cc2ccccc2)c2ccccc12`, the percent labeling came out at 28.8%.

Regarding `O=C(NCCS)C1CCCC2CCCN21` (configuration not stated), the percent labeling stood at 50.5%.

For `N#Cc1ccc(N2CC(C(=O)NCCS)CC2=O)cc1Cl` (configuration not stated), the percent labeling was 31.7%.

In the case of `Cc1cc(NC(=O)CCS)cc(N2CCN(C)CC2)c1`, the percent labeling was found to be 60.4%.

With `O=C(NCCS)C1CCC2CCCCN21` (configuration not stated), the percent labeling amounted to 42.9%.

The values are drawn from PubChem BioAssay AID2202238 (Ras Initiative Chemistry Research Team, Frederick National …, 2025).
